# Results published in PubChem BioAssay AID1345083 (National Center for Advancing Translational Sciences (NCATS), 2018).
# Among all 94,000 compounds or so, about 6,200 (6.6%) were called active. The inconclusive results got no clear call from the source; some entries with a clear call stand among them for comparison. The call rests on the fitted dose curve; in most records, active means well fitted inhibition curve with a large enough effect; inconclusive means small, poorly fitted or top-dose-only effect; inactive means flat fitted curve, though single readings scatter. Where the call is inconclusive, the potency comes from a doubtful curve fit.
# Assay: Cytotoxic Profiling in HEK 293 Cell Line of Diverse Libraries Using Quantitative High-Throughput Screening; further: nearly all actives have a fitted effect of over 60% in size
# Settings: HEK 293 viability, ATP luminescence (CellTiter-Glo), 48-72 h; series mostly up to 115 µM
# Outline: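 HEK 293 cells at 250 cells/well were exposed to compounds by pintool transfer for 48 or 72 hr at 37 degree Celsius, 5% CO2. Viability was read as ATP-coupled luminescence with CellTiter-Glo after 10 min at room temperature.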
# Potency means the concentration at half of the fitted maximal effect; tags describe the fitted curve by direction and shape.
row,SMILES,Potency
1,CCCn1c(C)cnc1CC1CCCN(C(=O)c2ccncc2)C1 (centres undefined),inactive
2,COCCNc1ncc(-c2ccncc2)c2c1OCC2,inactive
3,COc1ccccc1-c1cc2c(ccn2C(C)C)c(C(=O)NCc2c(C)cc(C)[nH]c2=O)n1,"inconclusive: 79.4 µM [inhibitor, single point]"
4,CC(C)Oc1cc(F)cc(-c2cc(NCCO)ncn2)c1,"inconclusive: 56.2 µM [inhibitor, partial curve, poor fit]"
5,Cc1ccccc1CC1(CO)CCCN(c2ccc(-c3nccn3C)nn2)C1 (centres undefined),active: 31.6 µM
6,COc1ccc(-c2cc(-c3ccc([S+](C)(=O)[O-])cc3)cn3cncc23)cc1,"inconclusive: 63.1 µM [inhibitor, full curve]"
7,O=C(Cn1cccc1-c1nc(-c2ccccc2)no1)Nc1ccccc1F,"inconclusive: 50.1 µM [inhibitor, partial curve, poor fit]"
8,CCNC(=O)N1CCCC(Cc2ncc(C)n2C(C)C)C1 (centres undefined),inactive
9,COc1ccc(CN(C)C2CCOc3ccccc32)cc1 (centres undefined),"inconclusive: 112 µM [inhibitor, partial curve, poor fit]"
10,Cc1cccc(C(=O)N2CCC3(CC2)CC(N2CCN(c4ccccc4)CC2)CCO3)c1 (centres undefined),"inconclusive: 50.1 µM [inhibitor, partial curve, poor fit]"
11,CC(=O)N1CCCN(c2ccc3nnc(C4CC4)n3n2)CC1,inactive
12,CN(Cc1ccccc1)Cc1nnc(C(=O)N2CCC[C@@H]2c2ccc(Br)cc2)n1Cc1ccccc1,active: 31.6 µM
13,Cc1nc(NCc2ccc(C(=O)N3CCCCC3)cc2)cc(C2CC(N)C2)n1 (centres undefined),"inconclusive: 39.8 µM [inhibitor, full curve, poor fit]"
14,O=C(NCCOc1ccccc1)c1cnc2n1CCN(Cc1ccccc1O)CC2,"inconclusive: 100 µM [inhibitor, partial curve]"
15,COc1ccc(Nc2ccnc(N3CCC(C(=O)N4CCCC4)CC3)n2)cc1,"inconclusive: 50.1 µM [inhibitor, partial curve, poor fit]"
16,COc1cccnc1C(=O)N1CCC(N2CCCC(C(=O)N3CCCC3)C2)CC1 (centres undefined),inactive
17,Cn1c2c(c3ccccc31)CC=C1C[C@@H](O)CC[C@@]12C,"inconclusive: 56.2 µM [inhibitor, partial curve, poor fit]"
18,Clc1cc(NCc2ccccc2Cl)n2nccc2n1,"inconclusive: 22.4 µM [inhibitor, full curve, poor fit]"
19,CSc1cccc(NC(=O)N2CCC(OC3CCN(Cc4ccccc4)CC3)CC2)c1,"inconclusive: 56.2 µM [inhibitor, partial curve, poor fit]"
20,CCCC(O)CN1CCC(=O)N(CC)Cc2ccccc21 (centres undefined),"inconclusive: 89.1 µM [inhibitor, single point]"
21,O=C(c1ccc2c(c1)OCO2)N1CCC2(CC(c3cccc(C(F)(F)F)c3)=NO2)C1 (centres undefined),"inconclusive: 79.4 µM [inhibitor, partial curve, poor fit]"
22,O=C(NCc1ccccc1)c1nc2sccn2c1-c1ccncc1,active: 112 µM

row,SMILES,Potency
1,O=C(c1cscn1)N1CCC2(CCCN(CCC3CCCCC3)C2=O)C1 (centres undefined),"inconclusive: 50.1 µM [inhibitor, partial curve, poor fit]"
2,N#Cc1ccc(CN2CCc3ncc(C(=O)NCCOc4ccccc4)n3CC2)cc1,active: 70.8 µM
3,CCOc1ccc(NC(=O)c2ccc3c(c2)N(CC)C2CCCCCN2C3=O)cc1 (centres undefined),"inconclusive: 44.7 µM [inhibitor, partial curve, poor fit]"
4,O=C(NC[C@H]1Cn2c(-c3ccc(Cl)cc3)cnc2CO1)C1CCCC1,"inconclusive: 112 µM [inhibitor, single point]"
5,O=C(CCCc1ccccc1)N1CCC[C@H]1c1nc(-c2ccccc2Cl)no1,"inconclusive: 50.1 µM [inhibitor, partial curve, poor fit]"
6,C[C@@H]1CNC[C@H]1c1nc(-c2ccncc2)no1,inactive
7,CC(=O)Nc1ccc(C(=O)N2CCC3(CC2)N=C(c2ccc(Cl)cc2)NO3)cc1,"inconclusive: 50.1 µM [inhibitor, partial curve, poor fit]"
8,COc1ccc(CCNC(=O)CNC(=O)c2cccc(-c3ccsc3)c2)cc1,"inconclusive: 89.1 µM [inhibitor, single point]"
9,O=C(c1ccc(Cl)cc1)N1CCC(OC2CCN(Cc3cccnc3)CC2)CC1,"inconclusive: 89.1 µM [inhibitor, single point]"
10,CNC(=O)c1cccc(-c2cnc(Nc3ccc(N4CCOCC4)cc3)c3c2CCO3)c1,active: 79.4 µM
11,O=[S+]([O-])(Nc1ccccc1)c1ccc2c(c1)OCCN(Cc1cscn1)C2,"inconclusive: 56.2 µM [inhibitor, partial curve, poor fit]"
12,Cc1ccc(-c2cc(C(=O)N[C@H]3Cc4ccccc4[C@@H]3N)n[nH]2)s1,"inconclusive: 79.4 µM [inhibitor, partial curve, poor fit]"
13,COc1ccc(OC)c(CNC(=O)c2nnn3c2COC(c2ccc(Cl)cc2)C3)c1 (centres undefined),"inconclusive: 14.1 µM [inhibitor, full curve]"
14,CCCn1cc(-c2ccnc(NC3CCN(Cc4cccnc4)CC3)n2)c(C)n1,active: 28.2 µM
15,CCNC(=O)CCc1c(C)nn(-c2ccc(F)cc2)c1Oc1ccccc1F,"inconclusive: 56.2 µM [inhibitor, full curve, poor fit]"
16,COc1cccc(C(=O)N2CCN(c3cc(C(F)(F)F)nc(C)n3)CC2)c1OC,inactive
17,CCNc1ncnc2sc3c(c12)CCN(Cc1ccncc1)C3,"inconclusive: 89.1 µM [inhibitor, partial curve, poor fit]"
18,COc1ccccc1-c1[nH]ncc1CN1CCCCCNC(=O)CC1c1ccccc1 (centres undefined),"inconclusive: 44.7 µM [inhibitor, partial curve, poor fit]"
19,O=C(NCC1CC1)c1coc(COc2ccc3c(c2)C(c2cccc(F)c2)N(C(=O)C2CC2)CC3)n1 (centres undefined),"inconclusive: 11.2 µM [inhibitor, full curve, poor fit]"
20,CCOC(=O)CNC(=O)c1ccc(CN2C(=O)NC3(CCS(=O)(=O)CC3)C2=O)cc1,inactive
21,CN(C)CCNC(=O)Cc1c[nH]c2ncc(-c3ccccc3)cc12,active: 112 µM
22,CC1(CCCCc2ccccc2)COc2ccc(C(=O)NCc3cnccn3)cc2N1 (centres undefined),"inconclusive: 100 µM [inhibitor, partial curve]"

row,SMILES,Potency
1,CCOC(=O)C1(Cc2ccc(F)cc2)CCCN(C(=O)c2ccc(C)s2)C1 (centres undefined),"inconclusive: 39.8 µM [inhibitor, full curve, poor fit]"
2,CC1=NS(=O)(=O)N(C)C=C1C(=O)OCc1nc(-c2cccc(F)c2)no1,"inconclusive: 79.4 µM [inhibitor, partial curve]"
3,COc1ccc(C(=O)NC2CCN(c3cc(-c4cccs4)[nH]n3)C2)c(C)c1 (centres undefined),"inconclusive: 100 µM [inhibitor, partial curve, poor fit]"
4,N#Cc1cccc(-c2c(C(=O)NCCN3CCOCC3)nc3sccn23)c1,inactive
5,COCC1CN(C)CC12CCN(C(=O)Cc1cccc(F)c1)CC2 (centres undefined),"inconclusive: 35.5 µM [inhibitor, full curve]"
6,CC(C)CNC(=O)C1CCc2nnc(-c3cccc(C(F)(F)F)c3)n21 (centres undefined),inactive
7,CCc1ccc(C(=O)N2CCN(c3cc(-c4ccc(F)cc4)[nH]n3)CC2)cc1,"inconclusive: 50.1 µM [inhibitor, partial curve, poor fit]"
8,O=C(c1ccccc1C(F)(F)F)N1C[C@@H](CO)[C@H](c2ccccn2)C1,"inconclusive: 89.1 µM [inhibitor, partial curve, poor fit]"
9,CN(C)c1cccc(C(=O)N2CCC(n3cc(-c4nc(-c5ccccc5)no4)nn3)CC2)c1,"inconclusive: 50.1 µM [inhibitor, partial curve, poor fit]"
10,Cc1ccc(CN2CCCOCCNC(=O)[C@@H]3CCCC[C@@H]32)s1,"inconclusive: 56.2 µM [inhibitor, partial curve, poor fit]"
11,O=C1NCCCCCCN(C(=O)C2CCC2)[C@H]2CCCC[C@@H]12,"inconclusive: 50.1 µM [inhibitor, partial curve, poor fit]"
12,CC1=C[C@@H](CNC(=O)[C@@H]2CCCC[C@@H]2C(=O)O)[C@H](C(C)C)C[C@H]1Cc1nc2c(C)cccc2[nH]1,inactive
13,CC(C)(C)OC(=O)NCCCNC(=O)[C@@H]1CCCN1c1ccnc2ccnn12,"inconclusive: 56.2 µM [inhibitor, partial curve, poor fit]"
14,CNC(=O)C1CCCN1Cc1cccc(-c2ccc(C)c(Cl)c2)c1 (centres undefined),active: 25.1 µM
15,O=C(NCC1CC1)c1cc(C2CC2)nc2onc(C3CCCNC3)c12 (centres undefined),inactive
16,COc1cccc(-c2cc3c(=O)n(CCNC(=O)C4CCN(C(C)=O)CC4)ccn3n2)c1,inactive
17,Cc1cc(Cl)ccc1OCC(=O)N1[C@@H]2CC[C@H]1CC(NC(=O)c1ccncc1)C2 (some centres undefined),"inconclusive: 17.8 µM [inhibitor, partial curve, poor fit]"
18,CC(C)c1noc(CC2CCN(C(=O)c3ccc(N(C)C)cc3)CC2)n1,"inconclusive: 50.1 µM [inhibitor, partial curve, poor fit]"
19,COCCn1c(=O)n([C@H]2CCCN(S(=O)(=O)c3cccc(OC)c3)C2)c2ncccc21,"inconclusive: 44.7 µM [inhibitor, partial curve]"
20,Cc1nn(-c2ccccc2)c2c1C(C)N(C1CCN([S+](C)(=O)[O-])C1)C2=O (centres undefined),"inconclusive: 70.8 µM [inhibitor, partial curve, poor fit]"
